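48-hour exposure; five concentrations; linearly interpolated endpoints. Here, GI50 denotes the concentration required for 50% inhibition of growth. TGI: total growth inhibition.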

The subject of the test is NCI-H322M lung. Nature of the test: NCI tumour cell line growth inhibition, 48 h.
`O=C1C(=C/C=C2/SC(c3ccccc3)(c3ccccc3)c3ccccc32)C(=O)c2ccccc21` registered a TGI greater than 100 µM.
The same measure, in the same setting: as for `COC1=CC(=C(C#N)C(=Nc2ccccc2)SC)C=C(OC)C1=O`, the figure is greater than 100 µM.
For `CC(=O)CC(=O)Nc1c(C)[c]([Hg][O]C(C)=O)c(C)[c]([Hg][O]C(C)=O)[c]1[Hg][O]C(C)=O`, the GI50 is 16.8 µM and the TGI came to 30.5 µM.
Turning to `CCCCCCCCCCCCCCCCCCNc1ccn(C2OC(CO)C(OP(=O)(O)OCC(COP(=O)(O)OCC3OC(n4cc(F)c(NCCCCCCCCCCCCCCCCCC)nc4=O)CC3O)OC(=O)CCCCCCCCCCCCCCC)C2O)c(=O)n1` (stereo unspecified), the TGI was greater than 100 µM.
Molecule `Cc1coc2c1[C@@H](O)[C@@]1(C)[C@H](CCC[C@@H]1C)C2` yielded a TGI greater than 100 µM.
Still for that read-out and setting: as for `N#Cc1cccc(N2C(=O)c3ccc(C(=O)c4ccc5c(c4)C(=O)N(c4cccc(C#N)c4)C5=O)cc3C2=O)c1`, the figure is greater than 100 µM; as for `CC1=c2c(oc3cc(O)c(Nc4c(C)cc(O)cc4O)c(C)c23)=CC(=O)C1=Nc1c(C)cc(O)cc1O`, greater than 100 µM; as for `N#Cc1c(-c2ccc(Cl)cc2)cc(-c2ccc(Nc3ccnc4cc(C(F)(F)F)ccc34)cc2)nc1N`, 53.2 µM.
The same measure, in the same setting: as for `C=CCCCC(C#N)(c1ccccc1)N1CCCC1` (stereo unspecified), the figure is greater than 100 µM.
As for `COc1cc(-c2cc(/C=C/C(=O)c3ccc(N)cc3)[nH]n2)cc(OC)c1OC`, the GI50 was 2.23 µM and the TGI turned out to be 5.59 µM.
As for `O=c1c2c([nH]c3cc4c(cc13)OCO4)-c1ccccc1C2`, the TGI was greater than 100 µM.
Still for that read-out and setting: as for `CN(C)C(=O)Nc1c([N+](=O)[O-])cc(C(F)(F)F)cc1[N+](=O)[O-]`, the figure is greater than 100 µM.
Take `Cc1ccc(S(=O)(=O)NC2=NCCN2C(=S)SN2CCn3c2nsc3=S)cc1`: the GI50 is 15.1 µM and the TGI came out at 46.1 µM.
With `CCN(CC)CCOc1nc2c3ccc(Cl)cc3nn2c2ccccc12`, the GI50 was 2.19 µM and the TGI amounted to 7.44 µM.
As to `CCOC(=O)C1C(=O)CC(O)(c2ccccc2)C(C(=O)OCC)C1c1ccc(N(C)C)cc1` (stereo unspecified), the TGI is greater than 100 µM.
On the same count and under the same terms, as for `Cn1c2c(c3ccccc31)C1C(=O)N(c3ccccc3)C(=O)C1CC2` (stereo unspecified), the figure is greater than 303 µM; as for `O=C(CSc1nccc(=O)[nH]1)c1ccccc1`, greater than 100 µM.
Regarding `CNc1cc(OCc2ccccc2)c(OC)cc1C(=O)N1CCC[C@H]1CO`, the TGI is greater than 100 µM.
The same measure, in the same setting: as for `C=C1C[C@@H](O)[C@@H](Br)C(C)(C)[C@@]12C=CC(O)(CBr)CC2` (stereo partly specified), the figure is greater than 100 µM.
Still for that read-out and setting: as for `COc1ccc(-c2nc3ccccc3c(=O)[nH]2)c(OC)c1`, the figure is greater than 100 µM; as for `O=C(O)CSc1ccc2[nH]c3ccccc3c(=O)c2c1`, greater than 100 µM.
For `O=C(COc1cccc(/C=C2/Oc3ccccc3C2=O)c1)Nc1nccs1`, the GI50 is 38.5 µM and the TGI was greater than 100 µM.
Consider `CCCCCCCCCCCC1=NCCN1`, for which the TGI is greater than 100 µM.
For the molecule `CSCCC(NC(=O)CNC(=O)C(CC(=O)O)NC(=O)C(NC(=O)C(NC(=O)C(NC(=O)CNC(=O)C(CCC(N)=O)NC(=O)C(CCSC)NC(=O)C(CC(=O)O)NC(=O)C(C)NC(=O)C(C)NC(=O)C(NC(=O)C(CO)NC(=O)C(N)CC(C)C)C(C)O)C(C)C)C(C)C)C(C)O)C(=O)NC(C)C(=O)NC(CO)C(=O)NCC(=O)NC(CC(C)C)C(=O)NC(CC(=O)O)C(=O)NC(CCCCN)C(=O)NC(CC(=O)O)C(=O)NC(Cc1ccc(O)cc1)C(=O)NC(CC(C)C)C(=O)NC(CCCCN)C(=O)N1CCCC1C(=O)NC(CC(=O)O)C(=O)NC(CC(=O)O)C(=O)O` (stereo unspecified), the GI50 is greater than 82.5 µM and the TGI is greater than 82.5 µM.
Turning to `CC(C)OP(=O)(OC(C)C)C([CH2][Sn]([CH3])([CH3])[Cl])P(=O)(OC(C)C)OC(C)C`, the GI50 was 26.1 µM and the TGI came to 81.4 µM.
Turning to `Cc1cnc(Cl)nc1C(C#N)c1nc2ccccc2s1` (stereo unspecified), the TGI is 65.6 µM.
Same read-out and setting: as for `COP1(=O)OCc2cnccc2O1` (stereo unspecified), the figure is greater than 100 µM; as for `CCCCCC(/C=C/C1CCC(=O)C1)OCOCCOC` (stereo unspecified), greater than 100 µM.
Molecule `CCN(CC)CCNc1ccc2ncn3c4ccccc4c(=O)c1c23` showed a TGI of 14.4 µM.
Same read-out and setting: as for `N#C/C(=C/c1ccco1)C(=O)c1ccccc1`, the figure is greater than 100 µM.
On to `CCC1=C(C)c2cc3[n-]c(cc4nc(c(C=O)c5[n-]c(cc1n2)c(C)c5CC)C(C)=C4CC)c(C)c3CC.[Ni+2]`, for which the GI50 is greater than 100 µM and the TGI is greater than 100 µM.
`CCCCCCCc1c(Cl)nc(Cl)nc1Cl` gave a TGI of 20.1 µM.
In turn, `COc1ccc(NC(=S)N=Nc2c(O)[nH]c3ccccc23)cc1` had a TGI greater than 100 µM.
The same measure, in the same setting: as for `CC(C)=CCC/C(C)=C/CC/C(C)=C/CCN(C)CCO`, the figure is 23.8 µM; as for `Cc1ccccc1C1=C/C(=C(\SS/C(C(=O)c2ccc(OCC(=O)O)c(Cl)c2Cl)=C2\C=C(c3ccccc3C)SS2)C(=O)c2ccc(OCC(=O)O)c(Cl)c2Cl)SS1`, greater than 100 µM.
In the case of `COc1ccc2c(-c3ccc(OCCN(C)C)cc3)c(Oc3ccccc3)c(=O)oc2c1`, the TGI worked out at 14.3 µM.
On the same count and under the same terms, as for `CCOc1ccc(NC(=O)C(=O)C2C(=O)Nc3ccccc3S2=O)cc1` (stereo unspecified), the figure is greater than 100 µM; as for `S=c1[nH]n2c(Cc3ccccc3)nnc2s1`, greater than 100 µM.
With `O=C1OC(c2cccc(C(F)(F)F)c2)c2ccc3ccccc3c21` (stereo unspecified), the GI50 is greater than 100 µM and the TGI is greater than 100 µM.
On to `CC1=NN(c2cccc(Cl)c2)C2(SCC(=O)N2c2nc3ccccc3s2)/C1=C\c1ccccc1` (stereo unspecified), for which the TGI amounted to 70.1 µM.
On the same count and under the same terms, as for `Cc1ccc(Nc2nc(C)c(C(=O)CC(=O)C(=O)Nc3ccc(Cl)cc3)s2)cc1`, the figure is greater than 100 µM; as for `O=P(O)(O)OC1OC(CO)C(O)C(O)C1O` (stereo unspecified), greater than 100 µM.
As to `[Co+2].[O-]c1ccccc1C=NCc1ccccc1.[O-]c1ccccc1C=NCc1ccccc1`, the GI50 was 24.8 µM and the TGI is greater than 100 µM.
`O=C(Nc1ccc(Cl)cc1)Nc1ccc(Oc2nncc3ccccc23)cc1`: the GI50 is 2.6 µM and the TGI stood at 9.51 µM.
Molecule `O=C(Nc1ccccc1Cl)c1cc(S(=O)(=O)Nc2n[nH]c(=O)n2-c2ccccc2)c(S)cc1Cl` displayed a TGI greater than 100 µM.
Still for that read-out and setting: as for `CC(C)c1cccc(C(C)C)c1NC(=S)N=Nc1cc(C(C)(C)C)c(O)c(C(C)(C)C)c1`, the figure is greater than 100 µM; as for `N#Cc1c2nc3ccccc3nc2n2ccccc12`, greater than 100 µM.
In turn, `N/C(=N/N=C/c1cc(Br)cc(Br)c1O)NO` came in with a TGI of 26.8 µM.
As to `CCCCCCCCCCCC(=O)c1c(O)cc(C)oc1=O`, the TGI is greater than 100 µM.
Still for that read-out and setting: as for `O=C(/C=C(\N=P(c1ccccc1)(c1ccccc1)c1ccccc1)C(F)(F)C(F)(F)C(F)(F)C(F)(F)C(F)(F)C(F)(F)C(F)(F)F)c1ccccc1`, the figure is greater than 100 µM; as for `O=C(/C=C/c1c(O)ccc2ccccc12)c1ccccc1Cl`, 78.3 µM.
On the same count and under the same terms, as for `Nc1ccc2c(c1)S(=O)(=O)c1cc(O)ccc1O2`, the figure is greater than 100 µM; as for `Cc1cc2c(c(C)c1O)C(C)(C)CN2C(=O)C(C)(C)C`, greater than 100 µM.
The same measure, in the same setting: as for `N/N=C(/Cc1ccccc1)NNC(N)=S`, the figure is greater than 100 µM; as for `O=C(c1ccc(Cl)c(Cl)c1)N(Cc1cccnc1)C(=S)N(Cc1cccnc1)C(=O)c1ccc(Cl)c(Cl)c1`, 83.1 µM.

(Values after PubChem BioAssay (NCI).)
